About 10 (0.005%) of roughly 200,000 compounds were called active. The shares of active, inactive and inconclusive entries below differ from those in the screen. The call rests on the fitted dose curve; in most records, active means well fitted inhibition curve with a large enough effect; inconclusive means small, poorly fitted or top-dose-only effect, or effect the other way, or another doubt; inactive means no such curve, though single readings can be large or run the other way. Potencies of inconclusive entries are left out as doubtful fits.
What follows are compounds tested against Lysosomal alpha-glucosidase (Homo sapiens) (UniProt P10253) (assay: qHTS Assay for Inhibitors of Human alpha-Glucosidase as a Potential Chaperone Treatment of Pompe Disease). Details: purified human GAA, 4-MU-alpha-glucoside fluorescence; activity change, negative = inhibition: at 76.9 µM (top of the series) unless noted.
Method in brief: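 AC50 values come from Hill fits of compound titrations (up to 77 uM) against 4 nM human enzyme. Substrate 4-methylumbelliferyl-alpha-D-pyranoside at 400 uM, pH 5.0 citrate buffer, 20 min room temperature; fluorescence Ex 365/Em 440 after alkaline stop.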
In the case of `CCCCC/C=C\C[C@H](O)/C=C/c1cccc(C[C@H](O)CCCCO)n1`, the Potency was inconclusive [inhibitor, partial curve]. `Nn1c(SCc2ccccc2)nnc1-c1ccco1` was tested, and the Potency was inconclusive [inhibitor, single point]. With `CN(C)S(=O)(=O)c1ccc(N2CCCC2)c(C(=O)Nc2nc3ccc(F)cc3s2)c1` the Potency was inconclusive [inhibitor, single point]. For `Cc1cc(C)n(-c2ncc3c(n2)N(CCO)CCOC3=O)n1`, the “activity change, negative = inhibition” value was inactive: -17.4%. For `C=CCOc1cccc(NC(=O)c2ccccc2SC)c1`, the Potency was inconclusive [inhibitor, partial curve, poor fit]. In the case of `Cc1ccc2c(c1)C(=O)C(=O)N2CC(=O)Nc1ccc(N2CCOCC2)cc1`, the activity change, negative = inhibition was inconclusive: 15.7% [activator]. `CCOC(=O)c1ccc(NC(=O)c2ccccc2C)cc1` was tested, and the Potency was inconclusive [inhibitor, single point]. In the case of `CN(C)S(=O)(=O)c1ccc(NC(=O)Cc2ccc(S(=O)(=O)N3CCOCC3)s2)cc1`, the Potency was inconclusive [inhibitor, single point]. With `c1ccc(CSc2ccc(-c3cccnc3)nn2)cc1` the Potency was inconclusive [inhibitor, single point]. With `O=S(=O)(NC1CCCCC1)c1ccc(Cl)s1` the Potency was inconclusive [inhibitor, single point]. In the case of `O=C(CN1CCN(c2cccc(Cl)n2)CC1)N1CC(O)CO1` (stereo unspecified), the activity change, negative = inhibition was inconclusive: 20.9% [activator]. With `COc1ccc(-c2ccccc2)cc1NCc1ccccc1C` the Potency was inconclusive [inhibitor, single point]. In the case of `Cn1c(N)c(C(=O)COC(=O)C2(c3cccc(F)c3)CCCC2)c(=O)n(C)c1=O`, the Potency was inconclusive [inhibitor, single point]. For `CCN(CC)C(=O)CSc1ncnc2c1nnn2-c1ccc(OC)cc1`, the Potency was inconclusive [inhibitor, single point]. For `Cc1cccc(C)c1NC(=O)N1C(C(=O)O)CSC1C(=O)O` (stereo unspecified), the Potency was inconclusive [inhibitor, full curve, poor fit]. With `Fc1cnc(N2CCOCC2)nc1NCc1ccccc1` the activity change, negative = inhibition was inconclusive: -15.5% [inhibitor]. For `CCCCN(CC)C(=O)c1ccc(-c2ccccc2)cc1`, the Potency was inconclusive [inhibitor, partial curve, poor fit]. With `O=C(Nc1nc2ccccc2[nH]1)c1ccccc1F` the Potency was inconclusive [inhibitor, single point]. For `NC(=O)c1ccc(NC(=O)c2ccccc2S(=O)(=O)c2ccccc2[N+](=O)[O-])cc1`, the Potency was inconclusive [inhibitor, single point]. `Nc1ccccc1-c1nc2ccccc2[nH]1` was tested, and the Potency was inconclusive [activator, partial curve]. For `Cc1nn(-c2ccc(F)cc2)c2c1cc(C#N)c1nc3ccccc3n12`, the Potency was inconclusive [inhibitor, single point]. `Cc1onc(-c2ccccc2)c1C(N)=O` was tested, and the Potency was inconclusive [inhibitor, full curve, poor fit]. In the case of `CC(C)CNC(=O)NC(=O)COC(=O)C1CSC2(c3ccc(F)cc3)CCC(=O)N12` (stereo unspecified), the Potency was inconclusive [inhibitor, partial curve, poor fit]. For `N#Cc1cc2cc3c(cc2nc1SCC(=O)OC1CCCCC1)OCO3`, the Potency was inconclusive [inhibitor, single point]. In the case of `Cc1ccccc1-n1c(SCc2cc(=O)n3ccccc3n2)nc2[nH]ncc2c1=O`, the activity change, negative = inhibition was inconclusive: -16.5% [inhibitor]. For `CN(C)/C=C(\C#N)C(=O)N/N=C(\CC(=O)C(F)(F)F)c1ccco1`, the activity change, negative = inhibition was inconclusive: 15.4% [activator]. With `CCn1c(SCC(=O)c2ccccc2)nnc1-c1cnccn1` the Potency was inconclusive [inhibitor, partial curve, poor fit]. In the case of `Cc1ccc(/C=N/c2sc3c(c2C#N)CCC3)o1`, the “activity change, negative = inhibition” value was inactive: 7.48%. In the case of `Cc1cccc(/C=C(\C(=O)C(=O)O)c2ccc3ccccc3n2)c1`, the Potency was inconclusive [activator, single point]. With `COc1ccc(CC(=O)N2CCCC(C)C2)cc1` (stereo unspecified) the Potency was inconclusive [inhibitor, partial curve, poor fit]. In the case of `Cc1cc(NCc2ccccc2)n2ncnc2n1`, the Potency was inconclusive [inhibitor, full curve, poor fit]. In the case of `O=C(C[n+]1cc(-c2ccc(Cl)c(Cl)c2)n2c1CCC2)N1c2ccccc2Sc2ccccc21`, the Potency was inconclusive [inhibitor, single point]. In the case of `CN(Cc1ccccc1)S(=O)(=O)c1ccc(NS(C)(=O)=O)cc1`, the activity change, negative = inhibition was inconclusive: -15.5% [inhibitor]. With `CCc1nnc(NS(=O)(=O)c2ccc(N=Cc3c(C)[nH]n(-c4ccc(C)cc4)c3=O)cc2)s1` the Potency was inconclusive [inhibitor, single point]. For `Cc1ccnc(SCCn2c(N3CCCCC3)nc3c2c(=O)[nH]c(=O)n3C)n1`, the Potency was inconclusive [inhibitor, full curve]. `CCSc1ncc(/C=N/Nc2ccc(Cl)cc2)n1C` was tested, and the Potency was inconclusive [inhibitor, single point]. `O=C1/C(=C\c2ccc(-c3ccccc3[N+](=O)[O-])o2)C(c2ccccc2)=NN1c1ccccc1` was tested, and the Potency was inconclusive [inhibitor, partial curve, poor fit]. In the case of `COc1ccc(NC(=O)c2c3c(nc4ccccc24)CCC3)cc1`, the Potency was inconclusive [inhibitor, single point]. For `O=C(Nc1ccc(Br)cc1F)c1cccnc1`, the Potency was inconclusive [inhibitor, single point]. `Cc1nccn1CCCNC(=O)CC1C(=O)NCCN1Cc1ccc(Cl)c(F)c1` (stereo unspecified) was tested, and the activity change, negative = inhibition was inconclusive: 18.7% [activator]. In the case of `O=[N+]([O-])c1cccc(/C([O-])=C(/C(=S)Nc2ccccc2)[n+]2ccccc2)c1`, the activity change, negative = inhibition was inconclusive: -16.6% [inhibitor].

Reference: PubChem BioAssay AID1466 (National Center for Advancing Translational Sciences (NCATS), 2008)
Potency means the concentration at half of the fitted maximal effect; tags describe the fitted curve by direction and shape.
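Wherever activity change, negative = inhibition is given: plate controls were uninhibited enzyme wells for no effect and no-enzyme background for full effect.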
